# Source: the supplement of paper PMC8728848
# This is one part of the list.
# B1: B160 (Bifidobacterium sp) (protein)
# chain: MVSHNKRIVAALAAVAAMGIGLAGCGGSDTAGDTKSGSDGGVVNITYMHRLPDSEGMTLVNDIVAKWNKEHPNIQVKATKFDGNAADMIKKLETDVKAGNAPDLAQVGYAEVPEVFTKGLLQDVTDEAAKYKDDFASGPFALMQVDGKTYGLPQDTGPLTYFYNAAEFEKLGITVPKTADELIETAKKTAAQGKYIMTFTPDEAMMMMSGQAGASGPWYKVDGNSWVVNTQTKGSKAVADVYQQLIDNKAALTNPRWDASFDNSIQSGQLIGTVAAAWEAPLFIDSAGGTGAGEWKVTQLGDWFGNGTKTGANGGSGVAVLKGSKHPAEAMEFLDWFNTQVDDLVSQGLVVAATTADAKTPQKWSDYFSGQDVMAEFKTANDNMGDFTYMPGFSAVGAAMKQTAAKAADGSAKVSDVFDTAQKTSVDTLKNLGLSVKE
# Columns and labels:
# Test in all cases: glycan array binding signal (z-score within array); higher = stronger binding
# Settings in all cases: glycan notation: IUPAC condensed, linker removed
# Fuc(a1-2)Gal = molecular target: Fuc(a1-2)Gal
# Method in brief: (§1)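 The binding signal is a Z-score computed within each array and averaged over linkers. Arrays of the same protein sequence at different concentrations or buffers were also averaged together. Data originate from 3228 arrays in the Consortium for Functional Glycomics database, kept only where the protein sequence was available.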
# Fuc(a1-2)Gal(b1-3)GalNAc = molecular target: Fuc(a1-2)Gal(b1-3)GalNAc
# Method in brief: as §1
# [1] = molecular target: Fuc(a1-2)Gal(b1-3)GalNAc(a1-3)[Fuc(a1-2)]Gal(b1-4)Glc
# Method in brief: as §1
# [2] = molecular target: Fuc(a1-2)Gal(b1-3)GalNAc(a1-3)[Fuc(a1-2)]Gal(b1-4)GlcNAc
# Method in brief: as §1
# [3] = molecular target: Fuc(a1-2)Gal(b1-3)GalNAc(b1-3)Gal
# Method in brief: as §1
# [4] = molecular target: Fuc(a1-2)Gal(b1-3)GalNAc(b1-3)Gal(a1-4)Gal(b1-4)Glc
# Method in brief: as §1
# [5] = molecular target: Fuc(a1-2)Gal(b1-3)GalNAc(b1-4)[Neu5Ac(a2-3)]Gal(b1-4)Glc
# Method in brief: as §1
# Fuc(a1-2)Gal(b1-3)GlcNAc = molecular target: Fuc(a1-2)Gal(b1-3)GlcNAc
# Method in brief: as §1
# [6] = molecular target: Fuc(a1-2)Gal(b1-3)GlcNAc(b1-2)Man(a1-3)[Fuc(a1-2)Gal(b1-3)GlcNAc(b1-2)Man(a1-6)]Man(b1-4)GlcNAc(b1-4)GlcNAc
# Method in brief: as §1
# [7] = molecular target: Fuc(a1-2)Gal(b1-3)GlcNAc(b1-2)Man(a1-3)[Fuc(a1-2)Gal(b1-3)GlcNAc(b1-2)Man(a1-6)]Man(b1-4)GlcNAc(b1-4)[Fuc(a1-6)]GlcNAc
# Method in brief: as §1
# [8] = molecular target: Fuc(a1-2)Gal(b1-3)GlcNAc(b1-3)Gal(b1-4)Glc
# Method in brief: as §1
# [9] = molecular target: Fuc(a1-2)Gal(b1-3)GlcNAc(b1-3)GalNAc
# Method in brief: as §1
# [10] = molecular target: Fuc(a1-2)Gal(b1-3)GlcNAc(b1-3)[Fuc(a1-2)Gal(b1-3)GlcNAc(b1-6)]GalNAc
# Method in brief: as §1
# [11] = molecular target: Fuc(a1-2)Gal(b1-3)GlcNAc(b1-3)[Gal(b1-4)GlcNAc(b1-6)]Gal(b1-4)Glc
# Method in brief: as §1
# [12] = molecular target: Fuc(a1-2)Gal(b1-3)GlcNAc(b1-3)[Neu5Ac(a2-6)Gal(b1-4)GlcNAc(b1-6)]Gal(b1-4)Glc
# Method in brief: as §1
# [13] = molecular target: Fuc(a1-2)Gal(b1-3)GlcNAc6S
# Method in brief: as §1
# [14] = molecular target: Fuc(a1-2)Gal(b1-3)[Fuc(a1-4)]GlcNAc
# Method in brief: as §1
# [15] = molecular target: Fuc(a1-2)Gal(b1-3)[Fuc(a1-4)]GlcNAc(b1-2)Man(a1-3)[Fuc(a1-2)Gal(b1-3)[Fuc(a1-4)]GlcNAc(b1-2)Man(a1-3)]Man(b1-4)GlcNAc(b1-4)GlcNAc
# Method in brief: as §1
# [16] = molecular target: Fuc(a1-2)Gal(b1-3)[Fuc(a1-4)]GlcNAc(b1-2)Man(a1-3)[Fuc(a1-2)Gal(b1-3)[Fuc(a1-4)]GlcNAc(b1-2)Man(a1-6)]Man(b1-4)GlcNAc(b1-4)[Fuc(a1-6)]GlcNAc(b1-4)[Fuc(a1-6)]GlcNAc
# Method in brief: as §1
# [17] = molecular target: Fuc(a1-2)Gal(b1-3)[Fuc(a1-4)]GlcNAc(b1-3)[Fuc(a1-3)[Gal(b1-4)]GlcNAc(b1-6)]Gal(b1-4)Glc
# Method in brief: as §1
# [18] = molecular target: Fuc(a1-2)Gal(b1-3)[Fuc(a1-4)]GlcNAc(b1-3)[Gal(b1-4)GlcNAc(b1-6)]Gal(b1-4)Glc
# Method in brief: as §1
# Fuc(a1-2)Gal(b1-4)Glc = molecular target: Fuc(a1-2)Gal(b1-4)Glc
# Method in brief: as §1
# Fuc(a1-2)Gal(b1-4)Glc6S = molecular target: Fuc(a1-2)Gal(b1-4)Glc6S
# Method in brief: as §1
# Fuc(a1-2)Gal(b1-4)GlcNAc = molecular target: Fuc(a1-2)Gal(b1-4)GlcNAc
# Method in brief: as §1
# [19] = molecular target: Fuc(a1-2)Gal(b1-4)GlcNAc(b1-2)Man
# Method in brief: as §1
# [20] = molecular target: Fuc(a1-2)Gal(b1-4)GlcNAc(b1-2)Man(a1-3)[Fuc(a1-2)Gal(b1-4)GlcNAc(b1-2)Man(a1-6)]Man(b1-4)GlcNAc(b1-4)GlcNAc
# Method in brief: as §1
# [21] = molecular target: Fuc(a1-2)Gal(b1-4)GlcNAc(b1-2)Man(a1-3)[Fuc(a1-2)Gal(b1-4)GlcNAc(b1-2)Man(a1-6)]Man(b1-4)GlcNAc(b1-4)[Fuc(a1-6)]GlcNAc
# Method in brief: as §1
# [22] = molecular target: Fuc(a1-2)Gal(b1-4)GlcNAc(b1-2)[Fuc(a1-2)Gal(b1-4)GlcNAc(b1-4)]Man(a1-3)[Fuc(a1-2)Gal(b1-4)GlcNAc(b1-2)Man(a1-6)]Man(b1-4)GlcNAc(b1-4)GlcNAc
# Method in brief: as §1
# [23] = molecular target: Fuc(a1-2)Gal(b1-4)GlcNAc(b1-3)Gal(b1-4)GlcNAc
# Method in brief: as §1
# [24] = molecular target: Fuc(a1-2)Gal(b1-4)GlcNAc(b1-3)Gal(b1-4)GlcNAc(b1-2)Man(a1-3)[Fuc(a1-2)Gal(b1-4)GlcNAc(b1-3)Gal(b1-4)GlcNAc(b1-2)Man(a1-6)]Man(b1-4)GlcNAc(b1-4)GlcNAc
# Method in brief: as §1
binder,measurement,setting,value
B1,glycan array binding signal (z-score),Fuc(a1-2)Gal,-0.17
same,glycan array binding signal (z-score),Fuc(a1-2)Gal(b1-3)GalNAc,-0.183
same,glycan array binding signal (z-score),[1],-0.163
same,glycan array binding signal (z-score),[2],-0.167
same,glycan array binding signal (z-score),[3],-0.139
same,glycan array binding signal (z-score),[4],-0.184
same,glycan array binding signal (z-score),[5],-0.176
same,glycan array binding signal (z-score),Fuc(a1-2)Gal(b1-3)GlcNAc,-0.158
same,glycan array binding signal (z-score),[6],-0.162
same,glycan array binding signal (z-score),[7],-0.147
same,glycan array binding signal (z-score),[8],-0.168
same,glycan array binding signal (z-score),[9],-0.158
same,glycan array binding signal (z-score),[10],-0.148
same,glycan array binding signal (z-score),[11],-0.18
same,glycan array binding signal (z-score),[12],-0.165
same,glycan array binding signal (z-score),[13],-0.133
same,glycan array binding signal (z-score),[14],-0.179
same,glycan array binding signal (z-score),[15],-0.134
same,glycan array binding signal (z-score),[16],-0.105
same,glycan array binding signal (z-score),[17],-0.159
same,glycan array binding signal (z-score),[18],-0.14
same,glycan array binding signal (z-score),Fuc(a1-2)Gal(b1-4)Glc,-0.165
same,glycan array binding signal (z-score),Fuc(a1-2)Gal(b1-4)Glc6S,-0.184
same,glycan array binding signal (z-score),Fuc(a1-2)Gal(b1-4)GlcNAc,-0.166
same,glycan array binding signal (z-score),[19],-0.182
same,glycan array binding signal (z-score),[20],-0.148
same,glycan array binding signal (z-score),[21],-0.157
same,glycan array binding signal (z-score),[22],-0.114
same,glycan array binding signal (z-score),[23],-0.173
same,glycan array binding signal (z-score),[24],-0.14
